# Data: PubChem BioAssay AID686970 (National Center for Advancing Translational Sciences (NCATS), 2013)
# Values joined by “and” are separate entries in the source; they are usually repeats but may differ in a detail not shown here. Equal values may be shown once. Out of some 360,000 compounds screened, about 6,000 (1.7%) were called active. This list was built around the results that the source calls inconclusive (neither active nor inactive); the mix of calls is not that of the screen. Calls come from the whole dose curve; as a rule, active = well fitted cell-killing curve with a large enough effect; inconclusive = small, poorly fitted or top-dose-only effect, or effect the other way; inactive = flat fitted curve, though single readings scatter. Potencies beside an inconclusive call are fits to weak or partial responses and may not hold up.
# Assay: qHTS for induction of synthetic lethality in tumor cells producing 2HG: qHTS for the HT-1080-NT fibrosarcoma cell line;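 note: NT is the 2HG producing partner of a matched IDH1 knockdown line; nearly all actives have a fitted effect of over 55% in size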;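 for activity, negative = less viability: 0% = DMSO-treated cells and -100% = media-only wells without cells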
# Settings: HT-1080-NT fibrosarcoma viability, CellTiter-Glo ATP luminescence, 48 h; activity, negative = less viability: at 46.1 µM (top of the series) unless noted
# Method in brief: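 750 cells/well, RPMI + 5% FBS; 2 h settle, compound pin-transfer, 48 h at 37 degrees C. CellTiter-Glo 10 min RT, luminescence. Normalized to DMSO and media-only wells.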
# Potency is the fitted concentration of half-maximal effect; tags give direction and shape of the fitted curve.
Structure (SMILES),Potency,"activity, negative = less viability"
COC(=O)c1ccc(C(=O)OC)c(NC(=O)CSc2cccc[n+]2[O-])c1,"inconclusive: 29.1 µM [cytotoxic, single point]",
Cn1nc(C(=O)NCCc2ccc(S(N)(=O)=O)cc2)c2ccccc2c1=O,"inconclusive: 25.9 µM [rising, single point]",
O=C1/C(=C\c2ccccc2)CCc2c1[nH]c1ccccc21,active: 7.31 µM,
C/C(=N\NC(=O)c1cc2ccccc2cc1O)c1ccccn1,"inconclusive: 0.206 µM [cytotoxic, full curve, poor fit]",
Clc1ccc(OCCCN2CCCCC2)c(Br)c1,inactive,
[N-]=[N+]=NC(c1ccccc1)C(NC(=O)c1cc(C(F)(F)F)cc(C(F)(F)F)c1)c1ccccc1 (stereo not given),"inconclusive: 23.1 µM [cytotoxic, single point]",
Cc1nn(C)cc1/C=N\NC(=O)c1csc2c1CCCC2,inactive,
O=C(NCC1CC1)c1cc2c(c(-c3cccc(-c4ccccc4F)c3)n1)[C@@H](CCO)N(C(=O)CC1CC1)C2,active: 20.6 µM,
COc1ccccc1NC(=S)N(Cc1ccco1)Cc1cc2cc(C)ccc2[nH]c1=O,"inconclusive: 23.1 µM [cytotoxic, partial curve]",
Cc1cccc(N=C2NN=C(c3ccc4c(c3)OCCO4)CS2)c1,"inconclusive: 22.4 µM [cytotoxic, single point]",
CCc1nc(N)nc(N)c1-c1ccc(Cl)c(N=[N+]=[N-])c1,"inconclusive: 29.1 µM [cytotoxic, single point] and inconclusive: 20.6 µM [cytotoxic, partial curve]",
C[C@]12C(=O)N(c3ccc(F)cc3)C(=O)N1[C@H]1c3ccccc3OC[C@@H]1[C@H]2c1ccccc1,"inconclusive: 29.1 µM [rising, single point]",
CN1CCN(C(=O)C2=C[C@@H](c3ccc4c(c3)OCO4)C[C@@H](OCc3ccc(CO)cc3)O2)CC1,inactive,
Cc1cccc2c(=O)cc(C(F)(F)F)[nH]c12,"inconclusive: 29.1 µM [cytotoxic, single point]",
CC(c1ccccc1C(O)(c1ccccc1)c1ccccc1)N(C)C (stereo not given),"inconclusive: 20.6 µM [cytotoxic, single point]",
CC(C)CC(=O)NC(Nc1ccc([N+](=O)[O-])cc1)C(Cl)(Cl)Cl (stereo not given),"inconclusive: 16.4 µM [cytotoxic, single point]",
COc1cc(/C=C/C(=O)Nc2nc3ccc(S(=O)(=O)N(C)C)cc3s2)cc(OC)c1OC,"inconclusive: 9.2 µM [cytotoxic, partial curve]",
COc1cc(C2C3=C(COC3=O)Oc3cc4c(cc32)OCO4)cc(OC)c1OC(C)=O (stereo not given),"inconclusive: 0.517 µM [cytotoxic, full curve]",
c1ccc(Cn2nnnc2C(c2cccnc2)N2CCN(c3ccccc3)CC2)cc1 (stereo not given),inactive,
Cc1cccc(NC(=S)NNC(=O)c2csc3c2CCC(C)C3)c1 (stereo not given),inactive,
CCOc1ccc(NC(=O)CN2C(=O)NC(C)(c3ccc(OC(F)F)cc3)C2=O)cc1 (stereo not given),"inconclusive: 29.1 µM [cytotoxic, single point]",
Clc1ccc2c(N/N=C/c3cccc(Br)c3)ccnc2c1,"inconclusive: 29.1 µM [cytotoxic, single point]",
CCOC(=O)C1(Cc2cccc(OC)c2)CCN(Cc2ccc(OC)c(OC)c2)CC1,,inconclusive: -31.1% [cytotoxic]
CC(C)C1C(=O)N(Cc2cn(CCC3OCCCO3)nn2)CCS(=O)(=O)N1Cc1ccc(-c2ccc(Cl)nc2)cc1 (stereo not given),inactive,

Structure (SMILES),Potency,"activity, negative = less viability"
COc1ccc(CC(N)c2csc(Nc3nc(C)cnc3C)n2)cc1 (stereo not given),"inconclusive: 18.4 µM [cytotoxic, single point]",
COCCn1c(C)cc(C(=O)CSc2nc3ccccc3o2)c1C,"inconclusive: 14.6 µM [cytotoxic, partial curve]",
Cc1ccc2nc(NC(=O)CCNS(=O)(=O)c3ccc(Br)s3)sc2c1,"inconclusive: 35.5 µM [cytotoxic, single point]",
CCn1c2ccccc2c2cc(NC(=O)C(C)C)ccc21,inactive,
Cc1ccc(C2=NN(S(=O)(=O)c3ccccc3)C(c3ccccc3O)C2)cc1 (stereo not given),active: 18.4 µM,
Cc1cc(-n2c(C)cc(C(=O)CSc3nnnn3-c3ccccc3)c2C)no1,"inconclusive: 14.1 µM [cytotoxic, single point]",
COc1ccc(NS(=O)(=O)c2cccc(C(=O)NC3CCN(Cc4ccccc4)CC3)c2)cc1,"inconclusive: 20.6 µM [cytotoxic, single point]",
O=C1/C(=C\c2cccnc2)CN(Cc2ccccc2)C/C1=C\c1cccnc1,active: 1.3 µM,
COc1ccc(C2/C=C\CN(C(=O)C3CC3)[C@H](Cc3ccccc3)C(=O)N2Cc2ccc(F)cc2)cc1 (stereo not given in full),"inconclusive: 25.9 µM [cytotoxic, single point]",
CC(C)(C)n1nnnc1C(c1cccs1)N1CCN(Cc2ccc3c(c2)OCO3)CC1 (stereo not given),inactive,
O=Cc1ccc2ccc3cccnc3c2n1,"inconclusive: 2.91 µM [cytotoxic, full curve]",
CC(=O)c1cc2c(cc1NS(=O)(=O)c1ccc(C)cc1)OCCO2,"inconclusive: 23.1 µM [cytotoxic, single point]",
O=C1N/C(=N/NC(=O)c2cccc3ccccc23)S/C1=C\c1ccccc1OCc1ccccc1,"inconclusive: 20.6 µM [cytotoxic, single point]",
O=C(Nc1cccc(Oc2ccccc2)c1)C1Cc2c(-c3ccc4c(c3)OCO4)ccnc2O1 (stereo not given),"inconclusive: 29.1 µM [cytotoxic, single point]",
O=C1c2ccccc2C2=Nc3ccccc3SC(c3cccc(F)c3)C12 (stereo not given),"inconclusive: 23.1 µM [cytotoxic, single point]",
O=C1CCCC(=O)N1c1ccc(F)cc1,inactive,
Nc1nc(N)c2cc(Sc3ccc(Cl)cc3)ccc2n1,active: 2.59 µM,
OC(CN1CCCCC1)Cn1c2ccccc2c2ccccc21 (stereo not given),inactive,
CC(C)c1ccc(CN2CCC2(C)C(=O)Nc2ccc3c(c2)OCO3)cc1 (stereo not given),"inconclusive: 29.1 µM [cytotoxic, single point]",
O=C(NNC(=O)c1ccccc1O)c1ccc(NS(=O)(=O)c2ccc(F)cc2)cc1,"inconclusive: 29.1 µM [cytotoxic, single point]",
O=c1[nH]c(/C=C/c2ccccc2OC(F)F)nc2c1cnn2-c1ccccc1,active: 18.4 µM,
CCc1nc(N)nc(N)c1-c1ccc(Cl)cc1,active: 3.16 µM and active: 820 nM,
COc1ccccc1-c1cc(NC(C)=O)c2ncc(-c3cccc(C(F)(F)F)c3)n2c1,"inconclusive: 14.6 µM [cytotoxic, partial curve]",
O=C(NN=C1CCCC1)c1n[nH]c2c1CCCC2,"inconclusive: 29.1 µM [cytotoxic, single point]",

Structure (SMILES),Potency,"activity, negative = less viability"
CC(C)(C)c1ccc(C(=O)NC(=O)COC(=O)CCS(=O)(=O)c2ccccc2)cc1,inactive,
O=C(Cc1cccc2ccccc12)Nc1nc2ccccc2[nH]1,active: 12.6 µM,
CCc1nc2ccc(C(=O)N(C)Cc3ccccc3)cn2c1N(CC)Cc1cccc(Br)c1,"inconclusive: 29.1 µM [cytotoxic, single point]",
CN(CCOc1ccccc1)C(=O)c1ccc(F)c(S(=O)(=O)N2CCOCC2)c1,inactive,
CCCc1nnc(NC(=O)CCC(=O)N2CCC(Cc3ccccc3)CC2)s1,inactive,
O=C(C#Cc1ccccc1)c1ccco1,active: 11.6 µM,
COc1ccc(C(CCNC(C)c2ccccc2)C(C)C)cc1 (stereo not given),"inconclusive: 18.4 µM [cytotoxic, partial curve]",
CN=C(Nc1cccc(OC)c1)SC1CC(=O)N(c2ccc(C(=O)O)cc2)C1=O (stereo not given),inactive,
Cc1ccc(C)c(NC(=O)Cn2nnc(C(=O)NCc3ccco3)c2N)c1,"inconclusive: 1.84 µM [cytotoxic, partial curve, poor fit]",
Oc1nc(Nc2cccc(Cl)c2)sc1/C=C1\C=Nc2ccccc21,"inconclusive: 25.9 µM [cytotoxic, single point]",
CN(C)S(=O)(=O)c1ccc(NC(=O)c2cc3ccccc3o2)cc1,inactive,
CC(C)C(C(=O)NCc1ccccc1)N(C)Cc1ccc(Cl)c(Cl)c1 (stereo not given),"inconclusive: 16.4 µM [cytotoxic, single point]",
O=C(CCCCCNC(=O)c1ccccc1)N/N=C/c1ccc(F)cc1,inactive,
CC(C(O)C12CC3CC(CC(C3)C1)C2)N1CCCCC1 (stereo not given),inactive,
CCCCNC(=O)CNC(=O)c1nn(-c2ccc(OC)cc2OC)c(=O)c2ccccc12,inactive,
CCCc1cc(=O)n2[nH]c(C)c(-c3ccc(Cl)cc3)c2n1,"inconclusive: 29.1 µM [cytotoxic, single point]",
CC(NC(=O)COC(=O)c1cc(NS(=O)(=O)c2ccc(Cl)c([N+](=O)[O-])c2)ccc1O)C1CC2CCC1C2 (stereo not given),"inconclusive: 18.4 µM [cytotoxic, single point]",
CCN1CCN(CCCNC(=O)c2ccc3c(c2)N(Cc2ccc(C)cc2)CCS3)CC1,"inconclusive: 29.1 µM [cytotoxic, single point]",
CCC(C)NC(=O)c1c(N)n(/N=C/c2ccccn2)c2nc3ccccc3nc12 (stereo not given),inactive,
CCN1CCN(c2ccc(S(=O)(=O)N3CCCCC3)cc2NC(=O)c2cccc(C(F)(F)F)c2)CC1,inactive,
COc1ccccc1CNC(=O)Nc1nc(C(N)Cc2ccc(Cl)cc2)cs1 (stereo not given),active: 14.6 µM,
CC(C)c1ccc(NC(=O)CCc2ccccc2)cc1,"inconclusive: 13 µM [cytotoxic, partial curve]",
